B1: tRNA (parent)
chain: CUCUCGGUAGCCAAGUUGGUUUAAGGCGCAAGACUUUAAUUUAUCACUACGAAAUCUUGAGAUCGGGCGUUCGACUCGCCCCCGGGAGAUUUUUUCCUCGAGCAA

Variants at the background level are over-represented here.

The data set covers variants of B1. The data set can be described thus: nonsense suppression (GFP-seq) (ratio to wild type); higher = more function; SUP4oc tRNA, yeast GFP reporter sort-seq. The essentials:
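Raffinose/galactose medium with 80 mg/L adenine was used to grow yeast carrying genome-integrated tRNA variants (~3% random-mutation library), RFP, and a galactose-driven GFP ochre reporter. Cells went into GFP/RFP bins, which were Illumina-sequenced, and variants with ≥100 reads and ≥30 cells were scored. Nonsense suppression (GFPSEQ) is the per-bin median GFP/RFP weighted by estimated cell share and expressed relative to the unmutated parent tRNA.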
CUCUCGGUAGCCGAGUUGGUUUAAGGCGCAAGACUUUAAUUUAUCACUACGAAAUCUUGAAAUCGGCCGUUCGACUCGCCCGCGGGAGAUUUUUUCCUCGAGCAA [A13G G61A G67C C82G]: the nonsense suppression was no more than 0.026.
As for CUCUCGGUGGCCAAGUUGGUUUAAGGCGCAAGACUUUAAUUUAUCACUACGAAAUCUUGAGAUCGCGCGUUCGACUCACCCCCGGGAGAUUUUUUCCUCGAGCAA [A9G G66C G78A], the figure is no more than 0.026.
Then CUCUCGGUAGCCAAGUUGGUUUAAGGGGCAAGACUUUAAUUUAUCACUACGAAAUCUUGAGAUCGGGCGUUCGACUCCCCCCCGGGAGAUUUUUUCCUCGAGCAA [C27G G78C], with no more than 0.026.
As for CUCUCGGUAGCCAAGUCGGUUUAAGGCGCAAGACUUUAAUUUAUCACUACGAAAUCUUGAGCUCGGGCGUUCGACUCGCCCCCCGGAGAUUUUUUCCUCGAGCAA [U17C A62C G84C], the figure is no more than 0.026; as for CUCUCCGUAACAAAGUUGGUUUAAGGCGCAAGACUUUAAUUUAUCACUACGAAAUCUUGAGAUUGGCCGCUUGACUCGCCCCCGGGAGAUUUUUUCCUCGAGCAA [G6C G10A C12A C64U G67C U70C C72U], no more than 0.026; as for CUCUCGGUAGCCAAGUUGGUUUAAGGCGCAAGACUUUAAUUUAUCACUACGAAUUCUUGAGAUCGGGCAUUCGACUCGCCCCCGGGAGAUUUUUUCCUCGAGCAA [A54U G69A], no more than 0.026.
In the case of CGCUCGGUAGCCAAGUUGGCUUAAGGCGCAAGGCUUUAAUUUAUCACUACGAAAUCUUGAGAUCGGGCGUUCGACUCGCCCCCGGGAGAUUUUUUCCUCGAGCAA [U2G U20C A33G], the nonsense suppression is no more than 0.026.
On to CUCUCGGUAGCCAAGUUGGUUUAAGGCGCAAGACUUUAAUUUAUCACUACGAAAUCUUGAGAUCGGGCGUUCGACGCUCCCCCGGGAGAUUUUUUCCUCGAGCAA [U76G G78U], for which the nonsense suppression is no more than 0.026.
As for CUCUCGGUUGCCAAGUUGGUUUAAAGCGCUAGACUUUAAUUUAUCACUACGAAAUCUUGAGAUCGGGCGUUCGACUCGCCCCCGGGAGAUUUUUUCCUCGAGCAA [A9U G25A A30U], the figure is no more than 0.026.
UUCUCGGUAGGCAAGUUAGUUUAAGGCGCAAGACUUUAAUUUAUCACUACGAAAUCUUGUGUUCGGGCGUUCGACUCGCCCCCGGGAGAUUUUUUCCUCGAGCAA [C1U C11G G18A A60U A62U]: the nonsense suppression is no more than 0.026.
As for CUCUCGGUAGCCAAGUUGGUUUAAGGCGCAAGACUUUAAUUUAUCACUACGAAAUCUUGAGAUCGGGCGUUCGACUCGCCCAUGGGAGAUUUUUUCCUCGAGCAA [C82A C83U], the figure is no more than 0.026.
Then CUCACGGUAGCCAAGUUGGUUUAAGGCGAAAGACUUUAAUUUAUCACUACGAAAUCUUGAGCUCGGGCGUUCGACUCGCCCCUGGGAGAUUUUUUCCUCGAGCAA [U4A C29A A62C C83U], with no more than 0.026; and CUCUCGGUAGCCAAGUUGGUUUAAGGCGGAAGACUUUAAUUUAUCACUACGAAAUCCUGAGAGCGGGCAUUCGACUCGCCCCCGGGAGAUUUUUUCCUCGAGCAA [C29G U57C U63G G69A], with no more than 0.026.
On to CUCUCGGUAGUCUAGUUGGUUUAUGGCGCAAGACUUUAAUUUAUCACUACGAAAUCUUGAGGUCGGGCGUUCGACUCGCCCCCGGGAGAUUUUUUCCUCGAGCAA [C11U A13U A24U A62G], for which the nonsense suppression was no more than 0.026.
For CUCUCGGUAGCCAAGUUGGUUUAAGGCGCAAGACUUUAAUUUAUCACUACGAAAUCUUGAGAUCGGCCGUCCGACUCGACCCCGGGAGAUUUUUUCCUCGAGCAA [G67C U71C C79A], the nonsense suppression was no more than 0.026.
Turning to CUCUCGGUAGCCAAGUUGGUUUAAGGCGCAAGACUUUAAUUUAUCACUACGAAAUCUUGAGAUCGUGGGUUCGUCUCGCCCCCGGGAGAUUUUUUCCUCGAGCAA [G66U C68G A74U], the nonsense suppression is no more than 0.026.
With CUCUCGGUUGCCAGGUUGGUUUAAGCCGCAAGACUUUAAUUUAUCACUACGAAAUCUUGAGAUCGGGCGUUCGACUCGCCCCCGGGAGAUUUUUUCCUCGAGCAA [A9U A14G G26C], the nonsense suppression is no more than 0.026.
As to CUCUCGGUAGCCAAGUUGGUUUAUGGCGCAAGACUUUAAUUUAUCACUACGAAAUCUUGAGAUCGGGUGUUCGGCUCGCCCCCGGGAGAUUUUUUCCUCGAGCAA [A24U C68U A74G], the nonsense suppression was no more than 0.026.
Then CUCUCGGUAGCCAAGUUGGUUUAAGGCGCAAGACUUUAAUUUAUCACUACGAAAUCGUGCGAUCGGGCGUUCGACUCGCCCCCGGGAGAUUUUUUCCUCGAGCAA [U57G A60C], with no more than 0.026.
Turning to CUCUCGGUAGCCAAGUUGGUUUAAGGCACAAAACUUUAAUUUAUCACUACGAACUCUUGAGAUCGGGCGUUCGACUCGCCCCCGGAAGAUUUUUUCCUCGAGCAA [G28A G32A A54C G86A], the nonsense suppression is no more than 0.026.
Turning to CUCUCGGUAGCCGAGUUGGUUUAAGGCGCAGGACUUUAAUUUAUCACUACGAAAUCUUGAGAUCGGGCGUUAGACUCGCCCCCGGGAGAUUUUUUCCUCGAGCAA [A13G A31G C72A], the nonsense suppression was no more than 0.026.
Then CUCUCGGUAGCCAAGUUGGUUUAAGGCGCAAGACUUUAAUUUAUCACUACGAAAUCUUUAGAUCGGGCGUUGGACUCGCCCCCGGGAGAUUUUUUCCUCGAGCAA [G59U C72G], with no more than 0.026.
As for CUCUCGGUAGCCAAGUUGGAUUAGGGCGCAAGACUUUAAUUUAUCACUACGAAAUCUUGAGAUCGGGCGUUCGACUCGCCCCCGGGAGAUUUUUUCCUCGAGCAA [U20A A24G], the figure is no more than 0.026; as for CUCUCGGUAGCCAAGUUGGUUUAAGGCGCAAGACUUUAAUUUAUCACUACGAAUUGUUGAGAUCGGGCGUUCGACUCGCCCCCGGGAGAUUUUUUCCUCGAGCAA [A54U C56G], no more than 0.026.
Then CUCUCGGUAGCCAAGUUGGUUUAAGGCGCAAGACAUUAAUUUAUCACUACGAAAUCUUGACAUCGGGCGUUCGACUCGCCCCCGGGAGAUUUUUUCCUCGAGCAA [U35A G61C], with no more than 0.026.
As to CUCUCGGUAGCAAAGUUGGUUUAAGGCCCAGGACUUUAAUUUAUCACUACGAAAUCGUGAGAUCGGGCGUUCGACUCGCCCCCGGGAGAUUUUUUCCUCGAGCAA [C12A G28C A31G U57G], the nonsense suppression was no more than 0.026.
As for CUGUCGGUAGCCAAGUUGGUUUAAGGCGCAAGACUUUAAUUUAUCACUACGAAAUCUUGAGAUCGAGCGUUCGACUCGCCCCCGGGAGAUUUUUUCCUCGAGCAA [C3G G66A], the figure is no more than 0.026.

These data come from the RNAGym collection of RNA variant scans (doi:10.1101/gad.245936.114).
